Consider 34 variants from the RNAGym collection of RNA variant scans (doi:10.1093/nar/gkz1192).

The chains are these.
B1: CPEB3 Ribozyme (parent)
chain: UAACAGGGGGCCACAGCAGAAGCGUUCACGUCGCAGCCCCUGUCAGAUUCUGGUGAAUCUGCGAAUUCUGCUGUAUAUCUC

The source gives no read counts; variants with many changes may rest on few reads.

The variants in this data set derive from B1. Kind of data set: self-cleavage, relative activity (ratio to wild type); higher = more cleavage; in vitro, sequencing. In short, it runs like this: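 Relative activity was defined as the cleaved/total read fraction for a variant divided by the same fraction for the unmutated ribozyme. CPEB3 self-cleaving ribozyme libraries were made by rounds of error-prone PCR, barcoded, and transcribed in vitro with T7 RNA polymerase for 5 hours at 37°C, and cleavage ran through transcription plus a 15 min DNase I step before EDTA. Illumina sequencing of template-switched reverse transcripts gave the reads, and DNA sequencing mapped the barcodes. Averages come from three batches, using variants with at least 5 reads.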
With UAACAGGGGGCCACAGCAGAAGCGUCCACGUCGCAGCCCCUGCCAGAUUCUGGUGAGUCUGCGAAUUCUGCUGUAUACCUC, the self-cleavage amounted to 0.28.

With UAACAGGGGGCCACAGCAGAAGCGUCCACGCCGCAGCCCCUGUCAGAUCCAGGUGAAUCUGCGAAUCCUGCUGUAUAUCUC, the self-cleavage stood at 0.06.

With UAACAGGGGGCCACAGCAGAAGCGUCCACGUCGCAGCCCCCGUCAGAUCCUGGUGAAUCUGCGAAUUCUGCUGUAUAUCUC, the self-cleavage came to 0.15.

For UAACAGGGGGCCACAGCAGAAGCGUCCACGUCGCAGCCCCUGCCAGGUUCUGGUGGAUCUGCGAAUUCUGCUGUAUAUCUC, the self-cleavage amounted to 0.31.

For the variant UAACAGGGGGCCACAGCAGAAGCGUCCACGUCGCAGCCCCGGUCAGAUUCUGGUGAAUCUGCGAAUUCUGCCGUAUAUCUC, the self-cleavage stood at 0.56.

For UAACAGGGGGCCACAGCAGAAGCGUCCACGUCGCAGCCCCUGACAGAUUCUGGCGAAUCUGCGAACUCUGCUGUAUAUCUC, the self-cleavage is 0.16.

As for UAACAGGGGGCCACAGCAGAAGCGUCCACGGCGCAGCCCCAGUCAGAUUCUGGUGAAUCUGCGAAUUCUGCUGUACAUCUC, the self-cleavage was 0.09.

Take UAACAGGGGGCCACAGCAGAAGCGUCCACGUCGCAGCCCCAGUCAGAUUCUGGUGAAUCUGCGAACUCUGCUGUAUAUCUC: the self-cleavage was determined as 0.22.

UAACAGGGGGCCACAGCAGAAGCGUCCACGCCGCAGCCCCUGACGGAUUCUGGAGAAUCUGCGAAUUCAGCUGUAUACCUC: the self-cleavage amounted to 0.04.

In the case of UAACAGGGGGCCACAGCAGAAGCGUCCACGUCGCAGCCCCUGACAGAUCCUGGGGAAUCUGCGAAUUCUGCUGUAUAUCUC, the self-cleavage amounted to 0.16.

Regarding UAACAGGGGGCCACAGCAGAAGCGUCCACGUCGCAGCCCCAGUCAGAUUCUGGUGAAUCUUCGAUUUCUGCCGUACAUCUC, the self-cleavage turned out to be 0.05.

As for UAACAGGGGGCCACAGCAGAAGCGUCCACGUCGCAGCCCCCGUCAGACUCUGGUGAAUCUGCUAAUUCCGCUGUAUAUCUC, the self-cleavage amounted to 0.14.

On to UAACAGGGGGCCACAGCAGAAGCGUCCACGUCGCAGCCCCCGUCAGAUUCUGGUUAAUCUACGAAUUCUGCUGUAUAUCUC, for which the self-cleavage amounted to 0.2.

Regarding UAACAGGGGGCCACAGCAGAAGCGUCCACGUCGCAGCCCCCGUCAGAUCCUGGUGAAUCUGCGAAUUCUGCUGCAUAUCUC, the self-cleavage was determined as 0.33.

As to UAACAGGGGGCCACAGCAGAAGCGUCCACGCCGCAGCCCCUGUCAGAUUAUGGUGAACCUGCGAAUUCUGCUGUAUAUCUC, the self-cleavage amounted to 0.09.

As to UAACAGGGGGCCACAGCAGAAGCGUCCACGCCGCAGCCCCUGUCAGAUUCUGGCGAAUCUGCGAAUUCUGCUGUAUAUCUC, the self-cleavage was 0.4.

UAACAGGGGGCCACAGCAGAAGCGUCCACGUCGCAGCCCCCGUCAGUUUCUGGCGAAUCUGCGAAUUCUGCUGUGUAUCCC: the self-cleavage was 0.1.

Turning to UAACAGGGGGCCACAGCAGAAGCGUCCACGGCGCAGCCCCUGUCAGAUACUGGUGAAUCUGCGAAUUCUGCCGUAUACCUC, the self-cleavage came out at 0.26.

For the variant UAACAGGGGGCCACAGCAGAAGCGUCCACGUCGCAGCCCCAGUCCGACUCUGGUGAAUCUGCGAAUUCUGCUGUAUAUCUC, the self-cleavage is 0.2.

On to UAACAGGGGGCCACAGCAGAAGCGUCCACGCCGCAGCCCCUGUCAGAUUCUGGUGAAUCUGCGAAUUCUGCUAUAUAUCUC, for which the self-cleavage came out at 0.66.

UAACAGGGGGCCACAGCAGAAGCGUCCACGUCGCAGCCCCCGUCAGAUUCUGGUGAUUCUGCGAAUUCUGCUGUAUAUCUC: the self-cleavage stood at 0.22.

As for UAACAGGGGGCCACAGCAGAAGCGUCCACGCCGCAGCCCCUGUCAGAUUCUGGUGAAUCUGCGAAUUCUGCUGUAUACCUC, the self-cleavage is 0.43.

On to UAACAGGGGGCCACAGCAGAAGCGUCCACGCCGCAGCCCCCGUCAGAUUCUGGUGAAUCUGCGAAUUCUGCUGUAUAUCUC, for which the self-cleavage came to 0.54.

As for UAACAGGGGGCCACAGCAGAAGCGUCCACGGCGCAGCCCCUGUCAGAUUCUGGUGAAUCUGCGAACUCUGCUGUAUAUCGC, the self-cleavage was found to be 0.1.

As to UAACAGGGGGCCACAGCAGAAGCGUCCACGUCGCAGCCCCCGUCCGAUUCUGGUGAAUCUGCGAAUUCUGCUGUAUAUCUC, the self-cleavage was found to be 0.4.

Take UAACAGGGGGCCACAGCAGAAGCGUCCACGUCGCAGCCCCCGUCAGAUUCUGGUGGAUCUGCGAAUUCUGCUGUAUAUCUC: the self-cleavage came out at 0.47.

As for UAACAGGGGGCCACAGCAGAAGCGUCCACGCCGCAGCCCCUGUCAGACUCUGGUGAAUCUGCGAAUUCGGCUGUAUAUCUC, the self-cleavage was 0.09.

In the case of UAACAGGGGGCCACAGCAGAAGCGUCCACGUCGCAGCCCCUGCCAGAUUCUGGUGAAUCUGGGAAUUCUGCUGUAUAUCUC, the self-cleavage is 0.21.

For UAACAGGGGGCCACAGCAGAAGCGUCCACGUCGCAGCCCCAGUCAGAUUCUGGUGAUUCUGCGAAUUCUGCUGUAUAUCUC, the self-cleavage worked out at 0.14.

On to UAACAGGGGGCCACAGCAGAAGCGUCCACGCCGCAGCCCCUGUCAGAUUCUGGUGAAUCUGCGAAUUCAGCUGUAUAUCUC, for which the self-cleavage came to 0.3.

Turning to UAACAGGGGGCCACAGCAGAAGCGUCCACGCCGCAGCCCCUGUCAGAUUCUGGCGAGUCUGCGAAUUCUGCUGUAUAUCUC, the self-cleavage is 0.12.

Turning to UAACAGGGGGCCACAGCAGAAGCGUCCACGCCGCAGCCCCCGUCAGAUUCUGGUGAAUCUGCGAAUUCUGCUGUAUUCCUC, the self-cleavage is 0.27.

With UAACAGGGGGCCACAGCAGAAGCGUCCACGUCGCAGCCCCGGUCAGAUUAUGGUGGAUCUGCGAAUUCUGCUGUAUAUCUC, the self-cleavage was determined as 0.1.

Regarding UAACAGGGGGCCACAGCAGAAGCGUCCACGUCGCAGCCCCUGACAGAUUCUGGUGAAUCUGCGAAUCCUGCUGUAUAUCUC, the self-cleavage was 0.55.
